The text below walks through data of the supplement of paper PMC11417369.

The list shows a part of the results.

For the experiment, the system named is PfAP2-HC AP2 domain (GST-tagged). The experiment is described as follows: gcPBM binding intensity (ln(normalized median fluorescence intensity)); higher = stronger DNA binding. The essentials:
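GST-fused DNA-binding domains of P. falciparum, expressed in E. coli, were applied at about 25 μg on average for 1 h to an Agilent 4 × 180k array of primer-extended double-stranded 36-bp intergenic genomic probes and negative controls. Binding intensity is the highest Masliner-normalised natural-log median intensity across replicate spots of either probe orientation, measured with Alexa488 anti-GST antibody and a 488 nm scan.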
On to “GGAATATTTATACATACACACATATATTTATTTATA [CACACA_site6883]”, for which the “gcPBM binding intensity (ln)” value was found to be 9.9. Consider “AATAATAATAAATATACACACATCATACAATTAACA [CACACA_site3679]”, for which the “gcPBM binding intensity (ln)” value amounted to 10.5. As for “TATTTTTTTCTTACTACACACATATAGATGCTTTCC [CACACA_site7825]”, the “gcPBM binding intensity (ln)” value came to 9.83. In the case of “GGTCTTTTCAACACACGTACATAAAAATATTATACA [XGTACX_site5360]”, the “gcPBM binding intensity (ln)” value was determined as 9.78. Turning to TAAACATATAGAGGGGTGCAAAGAATTGTAAAATTT, the “gcPBM binding intensity (ln)” value is 9.72.

Consider “TATATATTGATATGCACACCTATGTATTGATGTATA [CACACA_site1073]”, for which the “gcPBM binding intensity (ln)” value came to 9.77. As to “TATATATATAATTAAAGTACATATAACCACAAAAAT [XGTACX_site7289]”, the “gcPBM binding intensity (ln)” value was 9.85. With “ACATAAATTTAATACACACACAAAGAAAAAAAAAAA [CACACA_site4088]”, the “gcPBM binding intensity (ln)” value was found to be 10.9. “TAATATAATATATATACACACAAGAAATACAAAACG [CACACA_site1378]”: the “gcPBM binding intensity (ln)” value worked out at 10.4. Next, “ATATTATTATAATATACATATATATATATAATATAT [CACACA_negctrl_site480]”: 9.57; “ACCTAAAAGGTATAATATATAAATAAAAAAAAAAAT [CACACA_negctrl_site134]”: 9.72. Regarding “AAAATGAACAGACACACACACATATTTATATTTATA [CACACA_site7182]”, the “gcPBM binding intensity (ln)” value amounted to 10.3.

Regarding “TATTAATCTAATTCATAAAAAATGATCTATTTTGTT [CACACA_negctrl_site1035]”, the “gcPBM binding intensity (ln)” value came to 9.42. As to “AACATTTGATAAGATACACACACAAGGAAAAAAATA [CACACA_site8004]”, the “gcPBM binding intensity (ln)” value was 10.6. The figure for “TAGAATAATCTATAAACACACAAACACAACAAAAGA [CACACA_site7861]” is 10.8. Next, “TTTTTTTCTTTATTAGCACACATAATATTATATATG [CACACA_site8841]”: 9.79; “TATATCATTATATAAACACACAATATGTTTTTTATA [CACACA_site3781]”: 9.64; “TATAGGTATATATAAGTGCAATATATATGTATATAC [GTGCAC_site9427]”: 9.82.

As for GAAAAGCAGATAAATGTGCACATATATGTTTGTATA, the “gcPBM binding intensity (ln)” value stood at 9.86. On to “TATTATTTTTTAAATTGTACAATAAATTATAAAAGG [XGTACX_site1162]”, for which the “gcPBM binding intensity (ln)” value amounted to 9.24. Regarding “ACATAAAATTGTTAAAAAATTGTATAAATAATACAT [XGTACX_negctrl_site557]”, the “gcPBM binding intensity (ln)” value came out at 9.54. Regarding “CAGCTCTTAAAAATTACACACATATACTCATATATA [CACACA_site5757]”, the “gcPBM binding intensity (ln)” value was found to be 9.78.

For the sequence “AGATATTTTATAATTACACACATGAGGTTATTTGAA [CACACA_site1999]”, the “gcPBM binding intensity (ln)” value turned out to be 9.6.

On to “TTATAAAAATAATATCGTACAAATGACATAGATGAA [XGTACX_site2570]”, for which the “gcPBM binding intensity (ln)” value stood at 9.8. With “CATATACATAAACACACACACACATAAATAAATATA [CACACA_site4864]”, the “gcPBM binding intensity (ln)” value turned out to be 10.6. Regarding “GTGTTTTTTTTAGATTGTACATATATATATATATAT [XGTACX_site4562]”, the “gcPBM binding intensity (ln)” value turned out to be 9.87. With “TTTTGTAATTCTCTTCATATAATTTATATATATATA [CACACA_negctrl_site1825]”, the “gcPBM binding intensity (ln)” value came out at 9.61. For “ACCCAACATATGTGTACACAGAAAATAAATATAATA [CACACA_site5901]”, the “gcPBM binding intensity (ln)” value turned out to be 9.78.

For the sequence “ATGTATGTATAATATACACACTCACAAGCATTCAAA [CACACA_site4306]”, the “gcPBM binding intensity (ln)” value was found to be 9.94. Next, “GTATATATTCATATGGAAAATAAAGGAGAAAACAAG [TGCATGCA_negctrl_site220]”: 9.79; “TTTGTTTTTTCTTTTTGTACATATACAAGATACGTA [XGTACX_site2309]”: 9.53; “TAAGTGCATGAGATATGTACATATATAAAATATATA [XGTACX_site3294]”: 9.95. Turning to “AATAAAAACTAAACATGTACGCACATATATATATAT [XGTACX_site8096]”, the “gcPBM binding intensity (ln)” value came to 9.8. With “TAAAAAAAAAAAAATACACACACACCGATATATATA [CACACA_site8498]”, the “gcPBM binding intensity (ln)” value is 10.7. Next, “TCATAGTCTTAATGACTACACACCTAACTATGCATG [CACACA_site1839]”: 9.75; “ATGGTAGTGATTAAAAGTACACGTAATTGTAAAAAT [XGTACX_site387]”: 9.86. The figure for “ATATATATACATACATACCTATGTATATGTGTAATT [GTGCAC_negctrl_site50]” is 9.69; for “TAAACAACTTATAAATGTACACATATTTTAATTACC [XGTACX_site5409]” it is 9.6.

For the sequence “ATAAACATATCAATATGTACATATTTTTGTTTGTAT [XGTACX_site7018]”, the “gcPBM binding intensity (ln)” value worked out at 9.77. Consider “AAACCACAAAATTTTTTATATATGACCAATACATAG [CACACA_negctrl_site277]”, for which the “gcPBM binding intensity (ln)” value was 9.57. With “ATTTATCAATAAAATGCACACACTGTAATATTATTA [CACACA_site3976]”, the “gcPBM binding intensity (ln)” value was 9.85.

Turning to “TTATAATAGTTAAATGTACACACTAACTACATGGAA [CACACA_site9070]”, the “gcPBM binding intensity (ln)” value was 9.72. In the case of “ATTTGTTACACTAAATGTACATACATACATATATAT [XGTACX_site6175]”, the “gcPBM binding intensity (ln)” value is 10. Regarding “TTATAAATTATAGGTACACACAAAAAAAAAAAGAAA [CACACA_site1327]”, the “gcPBM binding intensity (ln)” value came to 9.88. Next, “ATATATATGTATGTATGTACATATTTGAATTTATTT [XGTACX_site8470]”: 9.9; “AGCACAGACGGACACACACACATATATATATATATA [CACACA_site4341]”: 10.8. With “TTCCATATAATTACATGTACACATTTTGAATAATAT [XGTACX_site3692]”, the “gcPBM binding intensity (ln)” value was found to be 9.82. Consider “AAAAAAAAAAGAAACACACACATTTGTATTTAATAT [CACACA_site5184]”, for which the “gcPBM binding intensity (ln)” value is 10.2. For “GTGATTTAATTGTGTTGTACATATTTATAAATAAAA [XGTACX_site8966]”, the “gcPBM binding intensity (ln)” value stood at 9.41. On to “GTACAGATAAATATTACACACATTTTCATTTTTAAC [CACACA_site5140]”, for which the “gcPBM binding intensity (ln)” value is 9.8. Consider “TTGTTCTTTTTTTTTTTATTTTTTAATTTGAAAAGA [CACACA_negctrl_site209]”, for which the “gcPBM binding intensity (ln)” value came to 9.37. Turning to “AAAAAGAAAAAACGAAGTACAATTATAAGATTATAT [XGTACX_site410]”, the “gcPBM binding intensity (ln)” value came to 9.72. As for “TATGTGCCAAGACACACACACATATTTATATTTATA [CACACA_site6360]”, the “gcPBM binding intensity (ln)” value was 10.2. In the case of “TATGAAAAATATCTTTGTACTTAGAAATATATACAC [XGTACX_site5393]”, the “gcPBM binding intensity (ln)” value came out at 9.54. “TTATTATTATATGAATGTACTTAAAAATACATTTTG [XGTACX_site2959]”: the “gcPBM binding intensity (ln)” value was 9.52. Take “ATTCTATATACACGCACACACACTTATATATATATA [CACACA_site3322]”: the “gcPBM binding intensity (ln)” value worked out at 10.6.
